Test results published in the supplement of paper PMC11417369.
± gives the standard deviation of the averaged measurements. The list shows a part of the results.

system: PfAP2-LT AP2 domain (GST-tagged); experiment: gcPBM binding intensity (ln(normalized median fluorescence intensity)); higher = stronger DNA binding
Procedure, shortened: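 Binding intensity is defined as the maximum Masliner-normalised natural-log median intensity across replicate spots for either probe orientation. It was measured on an Agilent 4 × 180k array of primer-extended double-stranded 36-bp intergenic genomic probes and negative controls, to which GST-tagged P. falciparum DNA-binding domains made in E. coli were applied for 1 h in 1× PBS with 1% milk, 0.2 mg/ml BSA, 0.5% salmon testes DNA and 0.03% Triton X-100. Detection was by Alexa488 anti-GST antibody and scanning at 488 nm.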

| Sequence | gcPBM binding intensity (ln) |
| --- | --- |
| AGGTATATATACATATGTACGTATATATATATATAT [XGTACX_site5115] | 9.88 ± 0.47 |
| ATAAAATAAACATAAATAAACATAAATAAACAAAAA [CACACA_negctrl_site1270] | 8.95 ± 0.52 |
| TATAATACAACATGCACACATATATATGTGAATCTC [CACACA_site2490] | 9.29 ± 0.28 |
| TTTAAAAATAAAAGTACACACATAAACATATTACAC [CACACA_site1428] | 9.14 ± 0.39 |
| TTATATAAATTATTTACACACAAACATTTATACTTT [CACACA_site3449] | 8.96 ± 0.45 |
| GGCGTATGTGTATATACACACCCACGTATATAAATA [CACACA_site7489] | 9.22 ± 0.45 |
| TTTCTAATTTATATCACACACATATTTATATAGTAA [CACACA_site6813] | 8.85 ± 0.32 |
| ATAATCCAACTTTGAGTGCGTGGTGTTTTTTTTTTC | 9.07 ± 0.43 |
| GGAATATTTTATGAGTGTACATTTTTTTTTTTTTTT [XGTACX_site2370] | 8.57 ± 0.44 |
| TTTCTTTTTTTTTTTTTTTCTTTTTTTTTTTTTTTC [CACACA_negctrl_site1025] | 8.37 ± 0.52 |
| TATATATACATATACACACATACGTACATACATATA [CACACA_site3585] | 9.13 ± 0.39 |
| TACATACATATATATACACACATATATAATATATAT [CACACA_site388] | 9.07 ± 0.31 |
| AAAAAAAAAAATAAATAAATAAATAAATATATATAT [TGCATGCA_negctrl_site468] | 8.61 ± 0.38 |
| ATATTCATATATACTTCACACACATTTTATCATTCA [CACACA_site8784] | 9.26 ± 0.34 |
| ATGAAAGTAAGACATGCATGGAATTTTTTTTATTAG [TGCATGCA_site348] | 8.79 ± 0.38 |
| TTTTTTTTTTTTGAAGTGCATTACTTTTTTTGTATT [GTGCAC_site9811] | 8.62 ± 0.52 |
| TTTTTTGTGTTTGGTACACACGTTATAAAAAATAAA [CACACA_site4866] | 8.51 ± 0.43 |
| AGGAATATAAAGTGCACACATAATTTGGGGGCAAAA [CACACA_site258] | 9.25 ± 0.44 |
| GAAAATAGCTAAAATACACACAATTAAAAATTATTA [CACACA_site3506] | 8.93 ± 0.5 |
| ATATGTCACTTGTATACACACATATATATTTCAATC [CACACA_site3256] | 9.36 ± 0.34 |
| TTACTTATAAATAAATATACAAAAATGTTATATATA [XGTACX_negctrl_site223] | 8.24 ± 0.38 |
| CTGAAAAAAAAGCTTGCACACGTATTTGCTTTATGT [CACACA_site8427] | 9.24 ± 0.38 |

| Sequence | gcPBM binding intensity (ln) |
| --- | --- |
| TTTTTTTTTTTTTGCACACACATTGAATTATTATTC [CACACA_site197] | 9.35 ± 0.38 |
| ATAAGAAAATATAAAATGCACACTATAAATTGTATA [CACACA_site143] | 8.89 ± 0.42 |
| TATACCTATATACATACATGCAAATATATATTCATA [TGCATGCA_site269] | 8.71 ± 0.38 |
| TATATAGAGAGATATGCACACTGTATGAATGCCCCC [CACACA_site5476] | 9.665 ± 0.035 |
| TTGTAAAACTTATAATGTACATTTTTTTTTTTTTTT [XGTACX_site5398] | 8.51 ± 0.6 |
| AGGGACATCTATATCACACACAAAAATTAGTCCCTT [CACACA_site7330] | 9.28 ± 0.4 |
| TTTGAGATAAAAGACTGTACTTAGAATGTATAAAAA [XGTACX_site203] | 8.48 ± 0.6 |
| AAAAAAAAAAAAAACTGTACCAAAAAGAATATATAC [XGTACX_site8345] | 8.82 ± 0.43 |
| ATATATATATATATATGTACATAAATATTTTAAAAT [XGTACX_site4980] | 9.21 ± 0.2 |
| TTTAATTTTATATAGAGTACAAAAAAATAGAAAGAT [XGTACX_site3870] | 8.69 ± 0.41 |
| AATATATGTTTAATTTCACACACAAATATACATTTT [CACACA_site9385] | 9.23 ± 0.45 |
| ATATATATATATATATGTACACATATACGCTTTTTC [XGTACX_site3838] | 9.71 ± 0.57 |
| TACTCCTTAAATATATGTAAAGGAAGAAAAAAAAAA [XGTACX_negctrl_site306] | 8.4 ± 0.51 |
| TTGTTTCTACAATTTAATAAAATACGTTTTCAAAAA [XGTACX_negctrl_site377] | 8.03 ± 0.42 |
| ACAATAAAAATAAAAAGTACAAATAAAAAAAATAAA [XGTACX_site6718] | 8.85 ± 0.52 |
| TATAATAATACGTATTGTACTATTAGGTTAATTCGT [XGTACX_site264] | 8.78 ± 0.36 |
| TTTTCTTGTAAATTACGTACGAATGTGTAGAGAAAT [XGTACX_site1339] | 8.63 ± 0.45 |
| ACTTGTAAGAAACACACACACACACCCATATATATA [CACACA_site796] | 10.2 ± 0.16 |
| TCTATAAAGGAATATACACACATATATATATATATA [CACACA_site410] | 9.79 ± 0.21 |
| AAGTAAAATAAGTATACACACATAAATATATATATA [CACACA_site685] | 9.22 ± 0.4 |
| TAAAATATAAAACACACACACATATATATATATATT [CACACA_site224] | 9.72 ± 0.11 |
| ATCCTCTTTACAATATGTACATAAATATATATTTAT [XGTACX_site8001] | 9.17 ± 0.49 |

| Sequence | gcPBM binding intensity (ln) |
| --- | --- |
| TATTTATTTATTTATTTATTTATTTATTTATATTTA [CACACA_negctrl_site398] | 8.44 ± 0.52 |
| TATATATTTTTATTATGTACATATTAACAATGTGTT [XGTACX_site879] | 8.81 ± 0.41 |
| TATATATATAAATACACACACATATATATATATATA [CACACA_site4867] | 9.74 ± 0.085 |
| TATATACTCATGCGCACACACAAGTGGGAAATTTGG [CACACA_site5056] | 9.47 ± 0.43 |
| TTCTTTAAAAAATTCGATAAAAAAAAAAAAAGAAAA [CACACA_negctrl_site242] | 8.04 ± 0.45 |
| ATATATTATAGGTACACACACATATAAGGGATTATA [CACACA_site6154] | 9.35 ± 0.42 |
| ATATATATATATATTGTGCACAAAAAAAAATAAGCA | 9.09 ± 0.4 |
| ATATACATATATATTGCATGCAGAGAGTATTTATAA [TGCATGCA_site646] | 8.91 ± 0.35 |
| GGAAAGACAGTTCACAGTACCCAGGAAATCTACGGA [XGTACX_site1996] | 9.04 ± 0.51 |
| CTTTGTAGTATATTAACACACAACTGTTTATAATAT [CACACA_site6038] | 8.9 ± 0.43 |
| TATATATATATTTAGTGTACTTAAAAAAAATAATAA [XGTACX_site5454] | 8.37 ± 0.45 |
| ATAATAATAAAATATATATACAAAGGTGAAATTATA [TGCATGCA_negctrl_site197] | 8.8 ± 0.45 |
| TATTTTTTTTTCCATTGTACATTTTTGATATTTTTC [XGTACX_site744] | 8.91 ± 0.52 |
| TTATTAAATATGTACACACGTACATTTTATAAATGA [CACACA_site2387] | 8.57 ± 0.35 |
| TATAAATACTAAAAAAGTACAAAATTTCATAAAAAA [XGTACX_site2709] | 8.55 ± 0.58 |
| ATTTTATATAATACATGTACAAAAGTTTAAATTTAT [XGTACX_site6196] | 8.62 ± 0.42 |
| GGAAAATCTAATCATTTAATATTTATTTATCTAATT [GTGCAC_negctrl_site553] | 8.35 ± 0.52 |
| TTATAATATAGCAATTATTAAATAGGATCAAATGAA [CACACA_negctrl_site632] | 8.41 ± 0.38 |
| TTCTTTATTTATCATTATAAGAAGAGTTGATTTGTT [XGTACX_negctrl_site555] | 8.61 ± 0.47 |
| AACAAATTTATCCAAAGTACAAAATATCATTTCTTA [XGTACX_site4543] | 8.52 ± 0.46 |
| AACAACATGTAGACGCGTACCAACATCAGATCCTAT [XGTACX_site4071] | 9.37 ± 0.38 |
| ATTATAATTATATATGCATGTAGCATTTTCTATTTT [TGCATGCA_site66] | 8.86 ± 0.4 |

| Sequence | gcPBM binding intensity (ln) |
| --- | --- |
| ATATAAGAAATAAAGAAAAATGTGTTTTTTTTTTTT [XGTACX_negctrl_site396] | 8.38 ± 0.59 |
| TTTATCTTATTTTTATGTACTTATTTTATAAAAAAA [XGTACX_site7730] | 8.23 ± 0.52 |
| AGAGCTGTTTTTTATGCATGTAGTTTAGAAAATACA [TGCATGCA_site257] | 8.51 ± 0.39 |
| AAACAAATATTTATCACAATGTCATTTTGTTAACAT [GTGCAC_negctrl_site171] | 8.8 ± 0.35 |
| TTTTTCCTAACATATTATATACTTGAATATTTATTA [CACACA_negctrl_site156] | 8.5 ± 0.55 |
| TATTTGTAAATTATTTGGGTGTGTAGGGGATATTCT [XGTACX_negctrl_site204] | 9.29 ± 0.42 |
| TTTTTTTTTTTATTTGCATGCGGTGTTCATAATATT [TGCATGCA_site199] | 9 ± 0.37 |
| CGTTCATATTATTATAGTACATATTATTATAGTTTT [XGTACX_site1550] | 8.76 ± 0.4 |
| AGAAGAAAAGTAAAAAGTACATTATTCATGGCCTAT [XGTACX_site5601] | 8.7 ± 0.43 |
| TTGGTGGATAAATTTACACACAATAACTTTCGTTCA [CACACA_site6358] | 8.94 ± 0.45 |
| AAGAAAATAAATAATACACACAAGGATTTGTAAATA [CACACA_site690] | 9.04 ± 0.45 |
| CTTTTTTTTTAAAAATGTACACATTTTTGAAAATAC [XGTACX_site3127] | 8.33 ± 0.47 |
| TTTTTCTTTTTTTTTTCCTTTATCACATAAGAAAAA [CACACA_negctrl_site192] | 8.18 ± 0.45 |
| AAAATGAAGAAGTGCACACATATATATATTTATATA [CACACA_site507] | 9.21 ± 0.39 |
| AAGATATGAGGGAATACACACATATATATATATATA [CACACA_site1581] | 9.97 ± 0.13 |
| TTAATACACCATAAAAGTACATAATATGATATTTAA [XGTACX_site8561] | 8.63 ± 0.42 |
| ATATGTTTGATTTTTTTTTTTTTTTTTTTTATGTGT [CACACA_negctrl_site1001] | 8.88 ± 0.63 |
| AAAAAAAAAATTAAAAGTACAGAAAATAAATAAATA [XGTACX_site7470] | 8.67 ± 0.48 |
| GACATATTATTCATGTGTACATATTATATGTATATA [XGTACX_site3442] | 8.91 ± 0.4 |
| AAAAAAGAAGACATCTAAGTAATAGTAACAATGTAT [CACACA_negctrl_site1660] | 8.93 ± 0.51 |
| AAGAATTTAGAAGGCATGCACTTAAACATGCATATA | 8.79 ± 0.5 |
| TATAAATATACACCCACACACATATATAAATAAATA [CACACA_site7717] | 9.65 ± 0.16 |
